# The other results are listed elsewhere or left out.
# B1: FGFR2-Fc (protein)
# chain: MVNVTDAISSGDDEDDTDGAEDFVSENSNNKRAPYWTNTEKMEKRLHAVPAANTVKFRCPAGGNPMPTMRWLKNGKEFKQEHRIGGYKVRNQHWSLIMESVVPSDKGNYTCVVENEYGSINHTYHLDVVERSPHRPILQAGLPANASTVVGGDVEFVCKVYSDAQPHIQWIKHVEKNGSKYGPDGLPYLKVLKHSGINSSNAEVLALFNVTEADAGEYICKVSNYIGQANQSAWLTVLPKQQAPGREKEITASPDYLETRPLEQKLISEEDLAANDILDYKDDDDKV
# Experiments:
# Experiment in all cases: glycan array binding signal (z-score within array); higher = stronger binding
# Details in all cases: glycan notation: IUPAC condensed, linker removed
# [1] = target: Glc(b1-6)Glc
# Outline: (§1)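 From the Consortium for Functional Glycomics database, 3228 arrays were curated, keeping only those whose protein sequence was available. Binding is given as a within-array Z-score averaged across arrays sharing a protein sequence and across linkers. Negative Z-scores can be read as non-binding.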
# [2] = target: GlcA(b1-3)Gal
# Outline: as §1
# [3] = target: GlcA(b1-3)GlcNAc
# Outline: as §1
# [4] = target: GlcA(b1-6)Gal
# Outline: as §1
# [5] = target: GlcA3S(b1-3)Gal(b1-4)GlcNAc(b1-2)Man
# Outline: as §1
# [6] = target: GlcA3S(b1-3)Gal(b1-4)GlcNAc(b1-3)Gal(b1-4)Glc
# Outline: as §1
# [7] = target: GlcNAc(a1-3)Gal(b1-4)GlcNAc
# Outline: as §1
# [8] = target: GlcNAc(a1-4)Gal(b1-3)GlcNAc
# Outline: as §1
# [9] = target: GlcNAc(a1-4)Gal(b1-4)GalNAc
# Outline: as §1
# [10] = target: GlcNAc(a1-4)Gal(b1-4)GlcNAc
# Outline: as §1
# [11] = target: GlcNAc(a1-4)Gal(b1-4)GlcNAc(b1-3)Gal(b1-4)Glc
# Outline: as §1
# [12] = target: GlcNAc(a1-4)Gal(b1-4)GlcNAc(b1-3)Gal(b1-4)GlcNAc
# Outline: as §1
# [13] = target: GlcNAc(a1-4)Gal(b1-4)GlcNAc(b1-3)Gal(b1-4)GlcNAc(b1-3)Gal(b1-4)GlcNAc
# Outline: as §1
# [14] = target: GlcNAc(a1-4)Gal(b1-4)GlcNAc(b1-3)Gal(b1-4)[Fuc(a1-3)]GlcNAc(b1-3)Gal(b1-4)[Fuc(a1-3)]GlcNAc
# Outline: as §1
# [15] = target: GlcNAc(a1-6)Gal(b1-4)GlcNAc
# Outline: as §1
# [16] = target: GlcNAc(b1-2)Gal(b1-3)GalNAc
# Outline: as §1
# [17] = target: GlcNAc(b1-2)Man(a1-3)[GlcNAc(b1-2)Man(a1-6)]Man(b1-4)GlcNAc(b1-4)GlcNAc
# Outline: as §1
# [18] = target: GlcNAc(b1-2)Man(a1-3)[GlcNAc(b1-2)Man(a1-6)]Man(b1-4)GlcNAc(b1-4)[Fuc(a1-6)]GlcNAc
# Outline: as §1
# [19] = target: GlcNAc(b1-2)Man(a1-3)[GlcNAc(b1-4)][GlcNAc(b1-2)Man(a1-6)]Man(b1-4)GlcNAc(b1-4)GlcNAc
# Outline: as §1
# [20] = target: GlcNAc(b1-2)Man(a1-3)[GlcNAc(b1-4)][GlcNAc(b1-2)Man(a1-6)]Man(b1-4)GlcNAc(b1-4)[Fuc(a1-6)]GlcNAc
# Outline: as §1
# [21] = target: GlcNAc(b1-2)[GlcNAc(b1-4)]Man(a1-3)[GlcNAc(b1-2)Man(a1-6)]Man(b1-4)GlcNAc(b1-4)GlcNAc
# Outline: as §1
# [22] = target: GlcNAc(b1-2)[GlcNAc(b1-4)]Man(a1-3)[GlcNAc(b1-4)][GlcNAc(b1-2)Man(a1-6)]Man(b1-4)GlcNAc(b1-4)GlcNAc
# Outline: as §1
# [23] = target: GlcNAc(b1-2)[GlcNAc(b1-4)]Man(a1-3)[GlcNAc(b1-4)][GlcNAc(b1-2)[GlcNAc(b1-6)]Man(a1-6)]Man(b1-4)GlcNAc(b1-4)GlcNAc
# Outline: as §1
# [24] = target: GlcNAc(b1-2)[GlcNAc(b1-4)]Man(a1-3)[GlcNAc(b1-4)][GlcNAc(b1-2)[GlcNAc(b1-6)]Man(a1-6)]Man(b1-4)GlcNAc(b1-4)[Fuc(a1-6)]GlcNAc
# Outline: as §1
# [25] = target: GlcNAc(b1-2)[GlcNAc(b1-6)]Man(a1-6)[GlcNAc(b1-2)Man(a1-3)]Man(b1-4)GlcNAc(b1-4)GlcNAc
# Outline: as §1
# [26] = target: GlcNAc(b1-2)[GlcNAc(b1-6)]Man(a1-6)[GlcNAc(b1-2)Man(a1-3)]Man(b1-4)GlcNAc(b1-4)[Fuc(a1-6)]GlcNAc
# Outline: as §1
# [27] = target: GlcNAc(b1-2)[GlcNAc(b1-6)]Man(a1-6)[GlcNAc(b1-4)][GlcNAc(b1-2)Man(a1-3)]Man(b1-4)GlcNAc(b1-4)GlcNAc
# Outline: as §1
# [28] = target: GlcNAc(b1-3)Fuc
# Outline: as §1
# [29] = target: GlcNAc(b1-3)Gal
# Outline: as §1
# [30] = target: GlcNAc(b1-3)Gal(b1-3)GalNAc
# Outline: as §1
# [31] = target: GlcNAc(b1-3)Gal(b1-4)Glc
# Outline: as §1
# [32] = target: GlcNAc(b1-3)Gal(b1-4)GlcNAc
# Outline: as §1
# [33] = target: GlcNAc(b1-3)Gal(b1-4)GlcNAc(b1-2)Man(a1-3)[GlcNAc(b1-3)Gal(b1-4)GlcNAc(b1-2)Man(a1-6)]Man(b1-4)GlcNAc(b1-4)GlcNAc
# Outline: as §1
# [34] = target: GlcNAc(b1-3)Gal(b1-4)GlcNAc(b1-2)Man(a1-3)[GlcNAc(b1-3)Gal(b1-4)GlcNAc(b1-2)Man(a1-6)]Man(b1-4)GlcNAc(b1-4)[Fuc(a1-6)]GlcNAc
# Outline: as §1
# [35] = target: GlcNAc(b1-3)Gal(b1-4)GlcNAc(b1-2)[GlcNAc(b1-3)Gal(b1-4)GlcNAc(b1-6)]Man(a1-6)[GlcNAc(b1-3)Gal(b1-4)GlcNAc(b1-2)Man(a1-3)]Man(b1-4)GlcNAc(b1-4)GlcNAc
# Outline: as §1
# [36] = target: GlcNAc(b1-3)Gal(b1-4)GlcNAc(b1-3)Gal(b1-4)GlcNAc
# Outline: as §1
# [37] = target: GlcNAc(b1-3)Gal(b1-4)GlcNAc(b1-3)Gal(b1-4)GlcNAc(b1-2)Man(a1-3)[GlcNAc(b1-3)Gal(b1-4)GlcNAc(b1-3)Gal(b1-4)GlcNAc(b1-2)Man(a1-6)]Man(b1-4)GlcNAc(b1-4)GlcNAc
# Outline: as §1
binder,measurement,setting,value
B1,glycan array binding signal (z-score),[1],-0.248
same,glycan array binding signal (z-score),[2],-0.029
same,glycan array binding signal (z-score),[3],-0.356
same,glycan array binding signal (z-score),[4],0.307
same,glycan array binding signal (z-score),[5],-0.293
same,glycan array binding signal (z-score),[6],-0.6
same,glycan array binding signal (z-score),[7],22.2
same,glycan array binding signal (z-score),[8],-0.278
same,glycan array binding signal (z-score),[9],-0.569
same,glycan array binding signal (z-score),[10],-0.008
same,glycan array binding signal (z-score),[11],0.349
same,glycan array binding signal (z-score),[12],-0.373
same,glycan array binding signal (z-score),[13],-0.686
same,glycan array binding signal (z-score),[14],1.49
same,glycan array binding signal (z-score),[15],-0.513
same,glycan array binding signal (z-score),[16],0.468
same,glycan array binding signal (z-score),[17],-0.082
same,glycan array binding signal (z-score),[18],-0.004
same,glycan array binding signal (z-score),[19],-0.754
same,glycan array binding signal (z-score),[20],-0.284
same,glycan array binding signal (z-score),[21],0.06
same,glycan array binding signal (z-score),[22],-0.277
same,glycan array binding signal (z-score),[23],-0.537
same,glycan array binding signal (z-score),[24],0.045
same,glycan array binding signal (z-score),[25],-0.124
same,glycan array binding signal (z-score),[26],-0.003
same,glycan array binding signal (z-score),[27],-0.09
same,glycan array binding signal (z-score),[28],0.448
same,glycan array binding signal (z-score),[29],-0.461
same,glycan array binding signal (z-score),[30],-0.02
same,glycan array binding signal (z-score),[31],0.11
same,glycan array binding signal (z-score),[32],-0.231
same,glycan array binding signal (z-score),[33],-0.118
same,glycan array binding signal (z-score),[34],-0.197
same,glycan array binding signal (z-score),[35],0.186
same,glycan array binding signal (z-score),[36],0.276
same,glycan array binding signal (z-score),[37],0.141

# From the supplement of paper PMC8728848
